Where a chain is given by its changes, count along the chain named. This is one part of the list.
T1: RBFOX1 RRM RbFoxmut (Fox-RRM*) (Homo sapiens, UniProt Q9NWB1 109-208, R118D;E147R;N151S;E152T)
T1 sequence: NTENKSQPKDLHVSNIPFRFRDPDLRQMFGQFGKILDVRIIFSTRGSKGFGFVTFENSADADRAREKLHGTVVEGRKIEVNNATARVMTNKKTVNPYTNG

B1: GGCUGAG (DNA:RNA)
RNA: GGGAGACCGGAAUUCAGAUUGUCCGGCUGAGUUAAAUCCCGUCGUAGCCACCA
DNA 1: CAATCTGAATTCCGGTCTCCC
DNA 2: TGGTGGCTACGACGGGATT
B2: ACCUUCA (DNA:RNA)
RNA: B1 RNA with G25A, G26C, G29U, A30C, G31A
DNA 1: CAATCTGAATTCCGGTCTCCC
DNA 2: TGGTGGCTACGACGGGATT
B3: AAGGUCC (DNA:RNA)
RNA: GGGAGACCGGAAUUCAGAUUGUCCAAGGUCCUUAAAUCCCGUCGUAGCCACCA
DNA 1: CAATCTGAATTCCGGTCTCCC
DNA 2: TGGTGGCTACGACGGGATT
B4: ACACGAG (DNA:RNA)
RNA: B1 RNA with G25A, G26C, C27A, U28C
DNA 1: CAATCTGAATTCCGGTCTCCC
DNA 2: TGGTGGCTACGACGGGATT
B5: AGGAGCA (DNA:RNA)
RNA: B3 RNA with A26G, G28A, U29G, C31A
DNA 1: CAATCTGAATTCCGGTCTCCC
DNA 2: TGGTGGCTACGACGGGATT
B6: UGAAUGC (DNA:RNA)
RNA: B3 RNA with A25U, A26G, G27A, G28A, C30G
DNA 1: CAATCTGAATTCCGGTCTCCC
DNA 2: TGGTGGCTACGACGGGATT
B7: UCCGAUU (DNA:RNA)
RNA: B3 RNA with A25U, A26C, G27C, U29A, C30U, C31U
DNA 1: CAATCTGAATTCCGGTCTCCC
DNA 2: TGGTGGCTACGACGGGATT
B8: GAUAGGU (DNA:RNA)
RNA: B1 RNA with G26A, C27U, U28A, A30G, G31U
DNA 1: CAATCTGAATTCCGGTCTCCC
DNA 2: TGGTGGCTACGACGGGATT
B9: ACCGUGU (DNA:RNA)
RNA: B3 RNA with A26C, G27C, C30G, C31U
DNA 1: CAATCTGAATTCCGGTCTCCC
DNA 2: TGGTGGCTACGACGGGATT
B10: UGCGGAC (DNA:RNA)
RNA: B1 RNA with G25U, U28G, G31C
DNA 1: CAATCTGAATTCCGGTCTCCC
DNA 2: TGGTGGCTACGACGGGATT
B11: GUGUGAG (DNA:RNA)
RNA: B1 RNA with G26U, C27G
DNA 1: CAATCTGAATTCCGGTCTCCC
DNA 2: TGGTGGCTACGACGGGATT
B12: CACUUCG (DNA:RNA)
RNA: B3 RNA with A25C, G27C, G28U, C31G
DNA 1: CAATCTGAATTCCGGTCTCCC
DNA 2: TGGTGGCTACGACGGGATT
B13: CUUACGC (DNA:RNA)
RNA: B3 RNA with A25C, A26U, G27U, G28A, U29C, C30G
DNA 1: CAATCTGAATTCCGGTCTCCC
DNA 2: TGGTGGCTACGACGGGATT
B14: GAUAGUA (DNA:RNA)
RNA: B1 RNA with G26A, C27U, U28A, A30U, G31A
DNA 1: CAATCTGAATTCCGGTCTCCC
DNA 2: TGGTGGCTACGACGGGATT
B15: UCUGCAC (DNA:RNA)
RNA: B3 RNA with A25U, A26C, G27U, U29C, C30A
DNA 1: CAATCTGAATTCCGGTCTCCC
DNA 2: TGGTGGCTACGACGGGATT
B16: UCAUCCA (DNA:RNA)
RNA: B3 RNA with A25U, A26C, G27A, G28U, U29C, C31A
DNA 1: CAATCTGAATTCCGGTCTCCC
DNA 2: TGGTGGCTACGACGGGATT
B17: AAACGCC (DNA:RNA)
RNA: B3 RNA with G27A, G28C, U29G
DNA 1: CAATCTGAATTCCGGTCTCCC
DNA 2: TGGTGGCTACGACGGGATT
B18: GGACAAA (DNA:RNA)
RNA: B1 RNA with C27A, U28C, G29A, G31A
DNA 1: CAATCTGAATTCCGGTCTCCC
DNA 2: TGGTGGCTACGACGGGATT
B19: AAGAUGA (DNA:RNA)
RNA: B3 RNA with G28A, C30G, C31A
DNA 1: CAATCTGAATTCCGGTCTCCC
DNA 2: TGGTGGCTACGACGGGATT
B20: AGGUGAC (DNA:RNA)
RNA: B1 RNA with G25A, C27G, G31C
DNA 1: CAATCTGAATTCCGGTCTCCC
DNA 2: TGGTGGCTACGACGGGATT
B21: GGUUGGC (DNA:RNA)
RNA: B1 RNA with C27U, A30G, G31C
DNA 1: CAATCTGAATTCCGGTCTCCC
DNA 2: TGGTGGCTACGACGGGATT
B22: UGGUGGG (DNA:RNA)
RNA: B1 RNA with G25U, C27G, A30G
DNA 1: CAATCTGAATTCCGGTCTCCC
DNA 2: TGGTGGCTACGACGGGATT
B23: UUCCAAA (DNA:RNA)
RNA: B1 RNA with G25U, G26U, U28C, G29A, G31A
DNA 1: CAATCTGAATTCCGGTCTCCC
DNA 2: TGGTGGCTACGACGGGATT
B24: CAGCUCG (DNA:RNA)
RNA: B3 RNA with A25C, G28C, C31G
DNA 1: CAATCTGAATTCCGGTCTCCC
DNA 2: TGGTGGCTACGACGGGATT
B25: UCGCGCG (DNA:RNA)
RNA: B3 RNA with A25U, A26C, G28C, U29G, C31G
DNA 1: CAATCTGAATTCCGGTCTCCC
DNA 2: TGGTGGCTACGACGGGATT
B26: GGGCCAU (DNA:RNA)
RNA: B1 RNA with C27G, U28C, G29C, G31U
DNA 1: CAATCTGAATTCCGGTCTCCC
DNA 2: TGGTGGCTACGACGGGATT
B27: AUCAACC (DNA:RNA)
RNA: B3 RNA with A26U, G27C, G28A, U29A
DNA 1: CAATCTGAATTCCGGTCTCCC
DNA 2: TGGTGGCTACGACGGGATT
B28: CGUCGAU (DNA:RNA)
RNA: B1 RNA with G25C, C27U, U28C, G31U
DNA 1: CAATCTGAATTCCGGTCTCCC
DNA 2: TGGTGGCTACGACGGGATT
B29: UGACGCU (DNA:RNA)
RNA: B1 RNA with G25U, C27A, U28C, A30C, G31U
DNA 1: CAATCTGAATTCCGGTCTCCC
DNA 2: TGGTGGCTACGACGGGATT
B30: UCACGUU (DNA:RNA)
RNA: B1 RNA with G25U, G26C, C27A, U28C, A30U, G31U
DNA 1: CAATCTGAATTCCGGTCTCCC
DNA 2: TGGTGGCTACGACGGGATT
B31: AUCGCAC (DNA:RNA)
RNA: B3 RNA with A26U, G27C, U29C, C30A
DNA 1: CAATCTGAATTCCGGTCTCCC
DNA 2: TGGTGGCTACGACGGGATT

What follows are binders tested against T1, RBFOX1 RRM RbFoxmut (Fox-RRM*) (assay: EMSA; HiTS-Eq, 1 nM pool, 10 min; buffer printed only for the single-RNA assays: 10 mM Tris pH 7.5, 150 mM NaCl, 3.4 mM EDTA, 0.001% NP-40, 30 C). Settings: tags: His6 N-terminal (pET28a); label: 5' 32P.
Method in brief: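 Purified wild-type or mutant RbFox RRM at increasing concentrations was equilibrated with 1 nM of 5′-radiolabelled RNA carrying 7 randomized nucleotides for 10 min in 50 µL. Unbound RNA was separated by 8% native PAGE and sequenced. Relative association constants came from read-count changes of each RNA species compared with the control reaction, normalised to the cognate motif.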

Binder | binding signal
B1 | 0.143 KA relative to UGCAUGU
B2 | 0.0895 KA relative to UGCAUGU
B3 | 0.0688 KA relative to UGCAUGU
B4 | 0.131 KA relative to UGCAUGU
B5 | 0.136 KA relative to UGCAUGU
B6 | 0.485 KA relative to UGCAUGU
B7 | 0.0694 KA relative to UGCAUGU
B8 | 0.0884 KA relative to UGCAUGU
B9 | 0.143 KA relative to UGCAUGU
B10 | 0.083 KA relative to UGCAUGU
B11 | 0.168 KA relative to UGCAUGU
B12 | 0.118 KA relative to UGCAUGU
B13 | 0.114 KA relative to UGCAUGU
B14 | 0.0954 KA relative to UGCAUGU
B15 | 0.0815 KA relative to UGCAUGU
B16 | 0.112 KA relative to UGCAUGU

Binder | binding signal
B17 | 0.0578 KA relative to UGCAUGU
B18 | 0.0761 KA relative to UGCAUGU
B19 | 0.0739 KA relative to UGCAUGU
B20 | 0.0863 KA relative to UGCAUGU
B21 | 0.111 KA relative to UGCAUGU
B22 | 0.0882 KA relative to UGCAUGU
B23 | 0.0776 KA relative to UGCAUGU
B24 | 0.122 KA relative to UGCAUGU
B25 | 0.152 KA relative to UGCAUGU
B26 | 0.0811 KA relative to UGCAUGU
B27 | 0.0605 KA relative to UGCAUGU
B28 | 0.0773 KA relative to UGCAUGU
B29 | 0.0832 KA relative to UGCAUGU
B30 | 0.103 KA relative to UGCAUGU
B31 | 0.1 KA relative to UGCAUGU
